The results in this text go back to PubChem BioAssay (NCI).

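Five concentrations, 48 hours, 96-well plates. GI50 = concentration required for 50% inhibition of growth. The concentration for full growth arrest is given as TGI.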

This assay has as its system NCI-H322M lung. Briefly: inhibition of tumour cell growth, NCI panel, 48 h.
In the case of `Cc1oc(-c2ccccc2)nc1CN[C@@H]1C[C@@H]2C[C@H]([C@H]1C)C2(C)C`, the GI50 is 13.3 µM and the TGI was 26 µM.
In the same order, the values of `COc1ccc2[nH]c(=O)c(CSc3nccc(-c4ccc(Cl)cc4)n3)cc2c1` are 19.8 µM and 57.5 µM.
For `COc1cc2c(c(OC)c1OC)C(=O)CC(c1cccc(NC(=O)c3cc(NC(=O)[C@H](C)N)ccc3Cl)c1)O2` (stereo partly drawn), in that order: 16.2 µM and 30.3 µM.
Turning to `COc1ccc2[nH]c(O)c(N=Nc3nc(-c4ccc(Br)cc4)cs3)c2c1`, the GI50 was 8.02 µM and the TGI was above 100 µM.
